Laboratory results from patent publication US4868195A, “Novel enolamides, pharmaceutical compositions and methods of use thereof for activity as modulators of the arachidonic acid cascade” (Warner-Lambert Company, priority 1988, dated 1989).
Several values for one entry are separate records, joined by “and”; a condition that tells them apart may be missing. Equal values may be shown once. The name of at least one read-out is uncertain.

What was measured:
[1] = molecular target: T1, leukotriene receptor (guinea pig lung membranes) (Cavia porcellus, UniProt Q2NNR5); assay: Binding of ^3 H-Leukotriene D4 to Guinea Pig Lung Membranes (RBL)
T1 construct: 20 mg original tissue wet weight of guinea pig lung; tissue Kuiper Rabbit Farm, Gary, IN (animals); host or cells: guinea pig lung, crude membranes
T1 sequence (Q2NNR5 1-340): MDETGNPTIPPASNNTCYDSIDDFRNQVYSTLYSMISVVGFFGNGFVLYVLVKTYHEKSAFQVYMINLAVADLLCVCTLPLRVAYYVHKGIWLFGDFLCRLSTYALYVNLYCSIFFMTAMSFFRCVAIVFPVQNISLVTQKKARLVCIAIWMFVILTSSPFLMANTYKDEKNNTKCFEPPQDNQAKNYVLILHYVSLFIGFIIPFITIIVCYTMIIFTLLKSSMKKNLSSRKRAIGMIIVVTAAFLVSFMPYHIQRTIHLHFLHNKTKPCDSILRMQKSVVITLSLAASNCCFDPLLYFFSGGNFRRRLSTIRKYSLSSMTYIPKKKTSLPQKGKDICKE
Description: Additionally, the activity, of the compounds having the Formula I of the present invention is determined by the well known leukotriene receptor binding assay that is described by R. F. Bruns, W. J. Thomsen and T. A. Pugsley in Life Sciences, 33, 645 (1983) or the Herxheimer in vivo antiallergy test described in H. Herxheimer, J. Physiol. (London), Vol. 177, p. 251 (1952).
Binding of ^3 H-Leukotriene D4 to Guinea Pig Lung Membranes (RBL)
[14,15-^3 H]leukotriene D4 (^3 H-LTD4) (25 Ci/mmol and 40 Ci/mmol) is purchased from New England Nuclear. Unlabeled LTC4 is a gift of Ono Pharmaceuticals (Japan). LTC4, LTD4, and LTE4 are purchased as methyl esters from Paesel GmbH (Frankfurt, W. Germany). Concentrations of the Paesel leukotrienes are calculated from their absorbance at 280 nm. Leukotriene esters are saponified overnight under N2 in 3.3% potassium carbonate at room temperature. Tritiated leukotrienes are stored as received from New England Nuclear at -20° C. Ono LTC4 (5 μg/ml) is stored at -60° C. in phosphate buffer pH 6.8. Saponified Paesel leukotrienes are stored at -60° C. in 3.3% potassium carbonate (pH 9.0-9.5). Aliquots of leukotrienes are taken from stock solutions immediately after thawing, after which the stock solutions are immediately refrozen. 2-Amino-2-(hydroxymethyl)-1,3-propanediol (Tris) is Sigma pH 7.7 pre-set crystals, and dimethylsulfoxide is Aldrich Gold Label.
Preparation of crude lung membranes
Two pairs of lungs (1.3 g) from freshly sacrificed 300 g male guinea pigs (older animals gave substantially lower binding) from Kuiper Rabbit Farm, Gary, IN are disrupted with a Polytron PT 10 (setting 4) for 30 seconds in 20 ml ice-cold 50 mM Tris adjusted with HCl to pH 7.7 at 25° C. (Tris buffer), filtered through a single layer of gauze to remove connective tissue, and centrifuged at 50,000 xg for ten min. The pellet is resuspended by homogenization with a Polytron in 20 ml Tris buffer, centrifuged at 50,000 xg for ten min., resuspended, incubated at 37° C. for 30 minutes, and centrifuged again. The final pellet is resuspended in Tris buffer and either used fresh or stored at -70° C.
All incubations are in triplicate for 60 minutes at 25° C. in 12×75 mm polystyrene tubes containing 1 ml Tris buffer with 20 mg original tissue wet weight of guinea pig lung nmembranes, 0.2 nM ^3 H-LTD4 (6,000-11,000 cpm), 10 mM MgCl2, and 1% dimethylsulfoxide Leukotrienes are diluted in Tris buffer. All other test compounds dissolved at 10 mM in dimethylsulfoxide on the same day as the experiment, and diluted in dimethylsulfoxide to 100× the final incubation concentration. Control incubations receive an equal volume (10 μl) of dimethylsulfoxide; the resulting concentration of dimethylsulfoxide had no effect on binding. ^3 H-LTD4 is diluted to 2 nM in Tris buffer. The membrane suspension (20 mg/0.89 ml) contains sufficient MgCl2 to give 10 mM final concentration in the incubation. […] All additions are performed at 0° C. Immediately after the last addition, the incubation is initiated by agitating the rack of tubes on a vortex mixer and warming to 25° C. in a water bath. Tubes are vortexed at least once more during the incubation to ensure that the membranes remained suspended. Incubations are terminated after 60 minutes by filtering under reduced pressure through 25 mm Whatman GF/B filters followed by rapid washing three times with 4 ml of ice-cold Tris buffer. Filters are added to scintillation vials with 8 ml Formula 947 (New England Nuclear), left overnight, shaken, and the radioactivity counted in a scintillation counter (efficiency 40%). Nonspecific binding, defined as binding of ^3 H-LTD4 in the presence of 100 nM LTC4, is 300-500 cpm for all lots of ^3 H-LTD4. Binding to the filters in the absence of tissue is about 100 cpm, and is not affected by unlabeled LTC4. Specific binding, defined as total binding minus nonspecific binding, varied considerably from lot to lot of ^3 H-LTD4. […]

[2] = molecular target: T2, human leukocyte 5-lipoxygenase (Homo sapiens, UniProt P09917); assay: 5-lipoxygenase inhibition in human leukocytes, 5-HETE formation (5LOA; methods 5LOA1 and 5LOA2); format: cell-based
T2 construct: endogenous in cells; host or cells: intact leukocytes isolated from human blood
T2 sequence (P09917 1-674): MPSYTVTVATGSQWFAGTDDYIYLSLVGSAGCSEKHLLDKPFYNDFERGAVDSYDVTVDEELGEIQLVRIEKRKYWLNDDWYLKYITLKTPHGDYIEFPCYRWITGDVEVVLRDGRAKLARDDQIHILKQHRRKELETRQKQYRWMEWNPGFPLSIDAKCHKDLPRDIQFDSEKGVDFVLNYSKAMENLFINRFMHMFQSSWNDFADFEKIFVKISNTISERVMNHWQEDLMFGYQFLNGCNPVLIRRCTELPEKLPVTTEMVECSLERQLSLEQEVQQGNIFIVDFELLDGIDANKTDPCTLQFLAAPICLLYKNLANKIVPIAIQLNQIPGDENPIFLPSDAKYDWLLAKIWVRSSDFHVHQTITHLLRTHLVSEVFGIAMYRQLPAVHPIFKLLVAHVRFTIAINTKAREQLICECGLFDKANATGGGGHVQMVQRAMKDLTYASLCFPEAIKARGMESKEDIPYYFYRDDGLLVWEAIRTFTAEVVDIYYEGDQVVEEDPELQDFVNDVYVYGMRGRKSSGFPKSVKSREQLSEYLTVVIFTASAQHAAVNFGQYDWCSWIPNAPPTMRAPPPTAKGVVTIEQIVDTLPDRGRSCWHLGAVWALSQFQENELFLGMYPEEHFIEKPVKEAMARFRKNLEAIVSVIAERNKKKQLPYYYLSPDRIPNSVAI
Source text: To Evaluate the Effect of Each Compounds as a 5-Lipoxygenase Inhibitor in Comparison to Standard Reference Agents in Human Leukocytes (5LOA1)
The purpose of this assay is to evaluate the activity of each compound as an inhibitor of human leukocyte 5-lipoxygenase.
Arachidonic acid and calcium ionophore A23187 are obtained from Sigma (St. Louis, MO). Silica gel plates, GF are obtained from Analtech (Newark, DE). Arachidonic acid, (1-^14 C) and 5-HETE (^3 H), 5 (S)-hydroxy-6-trans,8,11,14-cis eicosatetraenoic acid, are obtained from New England Nuclear (Boston, MA). Six percent Dextran-70 in 0.9% NaCl is obtained from Cutter Labs (Berkeley, CA).
Preparation of Leukocytes
Fresh blood from normal adult men who had not received any drugs for at least the previous five days is obtained by the Community Research Clinic (WL/PD) using venipuncture and collected into heparinized vacuotainer tubes. To every 100 ml of pooled blood is added 25 ml of dextran solution (6% dextran -70 in 0.9% sodium chloride containing 3% dextrose) and this is mixed gently in a plastic cylinder. The mixture is left to stand at room temperature for at least 90 minutes. The upper layer which is rich in leukocytes and platelets is then carefully decanted into 50 ml plastic tubes and centrifuged at about 100×g for eight minutes in an IEC centrifuge and rotor number 269 (about 600 rpm). The supernatant fluid is discarded and the pellet is resuspended in 10 ml of 0.87% ammonium chloride for exactly two minutes. This procedure is to lyse completely contaminating red blood cells. Leukocytes are then separated by centrifugation for ten minutes. The pellet is washed three times by suspension in 20 ml PBS (sodium chloride, 7.1 g; Na2 HPO4, 1.15 g; KH2 PO4, 0.2 g, and KCl, 0.2 g/L) and centrifuged as before. The final pellet is suspended in PBS containing 0.87 mM CaCl2. Viability of the cells is then checked using trypan blue exclusion method and is found to be over 90%.
5-Lipoxygenase Enzyme Assay
Leukocyte cells in suspension (0.98 ml) are incubated with or without test compounds for five minutes at 37° C. in a shaking water bath. At this time a 17 μl mixture is prepared per 1 ml of cell suspension: 100 mM arachidonic acid, 1 μl, 0.05 μCi ^14 C-arachidonic acid in 5 μl; 1 mM calcium ionophore A23187, 10 μl (1). This mixture is added and the incubation continued for five minutes. The reaction is stopped by adding four volumes of absolute ethanol and the mixture is kept in ice for 30 minutes. The floculated precipitate is separated by centrifugation at about 37,000×g for 20 minutes (Beckman Instruments rotor number 40). The alcohol extract is taken to dryness under a stream of nitrogen and the residue is dissolved in 100-200 μl absolute ethanol. At the time any turbidity is removed by centrifugation. An aliquot (25-50 μl) is applied onto 20×20 cm silica gel TLC plate and developed using the following solvent system: diethyl ether, petroleum ether (2040° C.), acetic acid (50:50:1 v/v). Zones of 1 cm apart are scraped from the TLC plate and transferred to mini-vials. Methanol (0.5 ml) is added to dissolve the radioactivity adsorbed to the silica gel and scintillation fluid (H. P., Beckman), 5 ml is then added and vials are counted in a liquid scintillation counter. A sample of ^3 H-5-HETE is applied and used for the identification of the formed 5-HETE.
Total radioactivity in the test as well as the control samples are normalized and the amount of 5-HETE present is calculated accordingly.
IC50 values are defined as the concentrations of test agents which caused a 50% inhibition of the formation of 5-HETE as compared to control and are determined by inspection of the concentration-response curves.
5-Lipoxygenase Assay Using Isolated Human Leukocytes (5LOA2)
The formation of 5-HETE in human leukocytes is considered a measure of 5-lipoxygenase activity. The protocol is described in the following. […]

| Structure (SMILES) | % Inhibition (5LOA) ([2]; Concentration 1.00 E -5 M) | % Inhibition (5LOA) ([2]; Concentration 2.00 E -5 M) | % Inhibition (5LOA) ([2]; Concentration 4.00 E -5 M) [%] | % Inhibition (5LOA) ([2]; Concentration 5.00 E -6 M) | other results |
| --- | --- | --- | --- | --- | --- |
| O=C(O)c1ccc(CCc2ccc(NC(=O)C3CS(=O)(=O)c4ccccc4C3=O)cc2)cc1 (stereo not drawn) [Example 12, 4-[2-[4-[[(3,4-Dihydro-4-oxo-2H-1-benzothiopyran-3-yl)carbonyl]amino]phenyl]ethyl]benzoic acid, 1,1-dioxide] |  |  |  |  | % Inhibition (RBL) ([1]; Concentration 1.00 E -4 M): 0.0%; % Inhibition (RBL) ([1]; Concentration 1.00 E -5 M): 0.0% |
| O=C(Nc1ccc(CCc2ccc(C(F)(F)F)cc2)cc1)C1CS(=O)(=O)c2ccccc2C1=O (stereo not drawn) [Example 44] | +19.6% | +5.8% | 30.0 |  |  |
| COc1ccc(CCc2ccc(NC(=O)C3=C(O)c4ccccc4S(=O)(=O)N3C)cc2)cc1OC [Example 83, N-[4-[2-(3,4-Dimethoxyphenyl)ethyl)phenyl]-4-hydroxy-2-methyl-2H-1,2-benzothiazine-3-carboxamide, 1,1-dioxide] |  |  |  |  | % Inhibition (5LOA) ([2]; Concentration 2.00 E 0 M): 9.2%; % Inhibition (5LOA) ([2]; Concentration 5.00 E 0 M): +1.6% |
| O=C(Nc1ccc(CCc2ccc(Cl)c(Cl)c2)cc1)C(=O)c1oc2cc3ccccc3cc2c1O [Example 113, Naphtho[2,3-b]furan-2-acetamide, N-[4-[2-(3,4-dichlorophenyl)ethyl]phenyl]-3-hydroxy-α-oxo] | 15.3% | 33.7% |  | 6.3% |  |
| O=C(Nc1ccc(CCc2ccc(Cl)c(Cl)c2)cc1)c1sc2ccccc2c1O [Example 144] |  | 42.5% |  | 36.0% |  |
| O=C(Nc1ccc(CCc2cc(C(F)(F)F)cc(C(F)(F)F)c2)cc1)c1sc2ccccc2c1O [Example 148, Benzo[b]thiophene-2-carboxamide, N-[4-[2-[3,5-bis(trifluoromethyl)phenyl]ethyl]phenyl]-3-hydroxy] |  | 19.0% |  | +7.3% |  |
| CCCCCCCCCCc1ccc(NC(=O)C(=O)C2=C(O)c3ccccc3OC2)cc1 [Example 151, N-(4-Decylphenyl)-4-hydroxy-α-oxo-2H-1-benzopyran-3-acetamide] | 13.9% |  | 18.0 |  |  |
| COc1ccc(CCc2ccc(NC(=O)C(=O)C3=C(O)c4ccccc4OC3)cc2)cc1OC [Example 152] | 23.0% | 38.1% and 33.9% | 76.3 |  | % Inhibition (5LOA) ([2]; Concentration 2.31 E -5 M): 0.0%; % Inhibition (5LOA) ([2]; Concentration 8.00 E -5 M): 79.2% |
| O=C(Nc1ccc(CCc2ccc(Cl)c(Cl)c2)cc1)C(=O)C1=C(O)c2ccccc2OC1 [Example 155, 2H-1-Benzopyran-3-acetamide, N-[4-[2-(3,4-dichlorophenyl)ethyl]phenyl]-4-hydroxy-α-oxo] |  | 10.1% | 2.3 | +7.6% |  |
| COc1ccc(CCc2ccc(NC(=O)C(=O)c3[nH]c4cc(C)c(C)cc4c3O)cc2)cc1OC [Example 175, 1H-Indole-2-acetamide, N-[4-[2-(3,4-dimethoxyphenyl)ethyl]phenyl]-3-hydroxy-5,6-dimethyl-α-oxo] | 7.0% | 2.0% |  |  | % Inhibition (5LOA) ([2]; Concentration 2.00 E -6 M): 8.0% |
